The other results are listed elsewhere or left out.
The sequences below were run on PfHDP1 homeodomain (GST-tagged) (assay: gcPBM binding intensity (ln(normalized median fluorescence intensity)); higher = stronger DNA binding).
How it was run: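 After 1 h on an Agilent 4 × 180k array of primer-extended double-stranded 36-bp intergenic genomic probes and negative controls, bound GST-tagged P. falciparum DNA-binding domains were detected with Alexa488 anti-GST antibody and scanned at 488 nm. The domains had been expressed in E. coli, and binding took place in 1× PBS with 1% milk, 0.2 mg/ml BSA, 0.5% salmon testes DNA and 0.03% Triton X-100. Binding intensity is the highest Masliner-normalised natural-log median intensity across replicate spots of either probe orientation.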

Row | Sequence | gcPBM binding intensity (ln)
1 | TTTAGCTATTATAGCTGTACAATGATAAAATAAATT [XGTACX_site6318] | 6.38
2 | ATGATTATAATTTAAAATATTTTACATAACCATTTC [GTGCAC_negctrl_site297] | 6.59
3 | ATAAGTAAAAATAAAAAAAAAATATATATATATATA [CACACA_negctrl_site1816] | 9.31
4 | AATGAATCCTTATATACACACATTATTATATTATAT [CACACA_site3108] | 7.23
5 | ATTAGCAACATTGATAAATATAAACACACGAAAACA [TGCATGCA_negctrl_site97] | 7.19
6 | TTTTTGTTCTATATGGTGCATGTTTATATTCGTATT | 8.47
7 | CATGTTTATGCCGTTTGTACATATATATCTAAAAAA [XGTACX_site4336] | 6.68
8 | CACGTATATATATATACACACACATATATATATGTA [CACACA_site7948] | 7.07
9 | ATACCATAAATATTGTGTACATAAATATGTTAGTAA [XGTACX_site6077] | 6.45
10 | TTTTAGAAATTTACTAAACTTTATATAACTATTGAA [TGCATGCA_negctrl_site280] | 5.93
11 | ATTATTAACATATATATACACACGAAAAAATTATAT [CACACA_site625] | 6.96
12 | TAATGAAATATTATGTGTACTTAAAAATTATTAAAT [XGTACX_site5261] | 6.4
13 | AGAATTATTTTATGTTTGCACTTTTTTTTTCTATAA [GTGCAC_site9876] | 7.49
14 | CTATAATATGGTATTACACACTGTTATAAGTATGGC [CACACA_site7068] | 6.41
15 | TATATTTCTTCTATAACATGCAGATATATGAAAATA [TGCATGCA_site971] | 6.22
16 | TATAAATAGAGACACACACACATATAAATAAATATT [CACACA_site7854] | 6.84
17 | ATATATTTTTTGAATACACACATATTATCTGTAATA [CACACA_site4826] | 6.45
18 | TATTCCTAATTGACAACACACACAACAAAAAAGGGA [CACACA_site8350] | 7.24
19 | AAAAATATAAAAATAGCACACATATATACATATATA [CACACA_site7901] | 6.67
20 | TATGGAGAAATAAATAGTACGTATTTTATTTAAAAA [XGTACX_site3129] | 6.47
21 | CTTGCAAAAAGTATATGTACATATATATATATATAT [XGTACX_site5792] | 9.55
22 | TATAAAAATATTGAAAGTACTTATTAAAATATTATT [XGTACX_site3701] | 6.07

Row | Sequence | gcPBM binding intensity (ln)
23 | ATGTTCGATGATAAATGTACAAAAATAATGGAAGTA [XGTACX_site1916] | 7.41
24 | TTTCCTAGCACATGCACACAAAAAAAAAAAAAAAAA [CACACA_site1404] | 8.18
25 | CGAACACAAACACAAACACACATCAGATATAAATAT [CACACA_site6736] | 6.55
26 | TGTTTGCTTATGTGTTAAATATATATATATATATAT [TGCATGCA_negctrl_site218] | 9.25
27 | ATTTTAGGAAAAAAAAGTACATATAATTTTTTATAT [XGTACX_site6954] | 6.06
28 | TTTTTTTTGATATATACACACAATAAATAAATATAA [CACACA_site7400] | 6.63
29 | ATTTATTATTATATCACACATAATATATTAAATGAT [CACACA_site5821] | 6.41
30 | TGTCACTACAAATGAGTGCATTAAATAATTTGGAAA | 9.4
31 | CCATAGATATTTTATACACACATATAATATATTAAG [CACACA_site4363] | 6.75
32 | ATATGCAAAGAGTATAATCAAAATGTAAATAAATAA [GTGCAC_negctrl_site141] | 6.73
33 | AATATTATTTATATTTGTACACAGTAATATAAAATA [XGTACX_site4884] | 6.25
34 | AAAAATAAAGAAACAGGTACGCATATATTAAGATAT [XGTACX_site8097] | 6.63
35 | AATATATTCCACATGTGTACATATATATATATATAT [XGTACX_site8006] | 9.29
36 | TTTCCTTCTACAAAAAATTTTATCAAGAGGAAGTAC [CACACA_negctrl_site926] | 6.55
37 | TGGGCGTCATAATGAACACACAATTATATTATGACT [CACACA_site3910] | 6.06
38 | TTACACAAATAGCTGCATTTATAAAATACAATTAAA [CACACA_negctrl_site241] | 6.18
39 | AAATATATATATTTACGTACATATATACAAATAGAG [XGTACX_site6067] | 6.98
40 | ATATATATATATTTATGTACGAATATGTTTAATTTA [XGTACX_site3986] | 8.78
41 | TTTTGTCAATTTTAGATTTTTCAATACATGGATATT [CACACA_negctrl_site319] | 6.1
42 | ATATATATAATAATATGTACGGAAAAAGCTTAAGCT [XGTACX_site5661] | 6.9
43 | TTATAAAGAACACAGACACACAAAGAAAGAACCAAT [CACACA_site4175] | 6.91
44 | CACAAATAAATACATACACACATATATACTCATATA [CACACA_site4379] | 6.62

— the supplement of paper PMC11417369
